Measurements as given in PubChem BioAssay AID1457 (National Center for Advancing Translational Sciences (NCATS), 2008).
Hit rate of the full screen: of about 210,000 compounds, about 730 (0.35%) were called active. Inconclusive results, whose numbers are uncertain, are shown with a selection of clear calls. Calls follow the shape of the dose curve; as a rule, active = well fitted inhibition curve with a large enough effect; inconclusive = small, poorly fitted or top-dose-only effect; inactive = no such curve, though single readings can be large or run the other way. A potency beside an inconclusive call is a rough fit, not a confirmed value.

experiment: qHTS Assay for Identifying the Cell-Membrane Permeable IMPase Inhibitors: Potentiation with Lithium; conditions: CHO-M1 cells, IP1 TR-FRET (IP-One), carbachol + lithium; series mostly up to 59.4 µM; also: nearly all actives have a fitted effect of over 50% in size
Summary of the method: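 CHO cells stably expressing M1 receptor (2000/well) were cultured 16–30 h, then exposed to compounds with a small lithium addition for 30 min at 37C. IP1 was measured by TR-FRET competition; AC50 from Hill fits.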
Potency is read from the fitted curve at half-maximal effect.

Potency, active:
Cc1ccc(C)c(/C(O)=C2\C(=O)C(=O)N(Cc3cccnc3)C2c2cccnc2)c1 (configuration not stated) 7.08 µM
COc1ccc(C2C(C(=O)c3ccc(C)o3)=C(O)C(=O)N2c2cc(C)on2)cc1OC (configuration not stated) 10 µM
O=c1c2oc3ccccc3c2[nH]c(=S)n1-c1ccccc1 8.91 µM
COc1cccc(C2C(C(=O)c3cc4cccc(OC)c4o3)=C(O)C(=O)N2c2cc(C)on2)c1OC (configuration not stated) 10 µM
CCOc1ccc(Cn2nnc(C(=O)NCc3ccc(OC)cc3)c2N)cc1 11.2 µM

Potency, inactive:
COc1cccc(-c2csc(N3CCN(C(=S)Nc4ccccc4)CC3)n2)c1
CCOc1ncccc1C(=O)Nc1ccc(F)c(Cl)c1
COCCn1c(SCC(=O)N2CCCc3ccccc32)nnc1-c1ccco1
COc1cc(OC)c(NC(=O)Cn2cccc2)cc1Cl
COC(=O)CSc1nnc([C@H](CC(C)C)NC(=O)OC(C)(C)C)o1
COCCSc1ccccc1C(=O)Nc1ccc(Cl)cc1
Cc1ccc(S(=O)(=O)N(CC(=O)N2CCC(C)CC2)c2cccc(C)c2)cc1
O=S(=O)(c1ccc2c(c1)OCCO2)N1CCC(O)(c2ccc(Cl)cc2)CC1
CN(C)S(=O)(=O)N1CCN(C(=O)c2cccs2)CC1
CCCCCSc1nc2c(c(=O)[nH]c(=O)n2C)n1C(C)C
CCc1ccc(C(=O)NCC2COc3ccccc3O2)o1 (configuration not stated)
Cc1ccccc1CN1CCN(CC(=O)NCc2ccccc2)C1=O
COC(=O)[C@@H]1C[C@@]2(O)[C@H](O)[C@H](O)[C@H](O)C[C@H]2N1Cc1ccc(N2CCOCC2)cc1
COc1ccc(C(=O)NC(=S)NCc2ccc(-c3nc4ccccc4o3)cc2)cc1OC

Potency, inconclusive:
O=c1[nH]c2cc3c(cc2cc1CN(CCCO)Cc1nnnn1Cc1ccc(F)cc1)OCO3 0.631 µM [inhibitor, full curve, poor fit]
Cc1nc(-c2ccccc2)sc1C(=O)O 10 µM [inhibitor, partial curve]
Cc1ccc(C2(C(F)(F)F)N=C3Sc4cc(C)ccc4N3C(=O)N2)cc1 (configuration not stated) 22.4 µM [inhibitor, single point]
O=C(NC1CCCCCCC1)c1cc(-c2ccccn2)nc2ccccc12 7.08 µM [inhibitor, partial curve, poor fit]
COc1ccc(-c2cc(-c3cccs3)nc3sc(C#N)c(N)c23)cc1 25.1 µM [inhibitor, single point]
Cc1cc(N2CCN(C)CC2)nc2ccc(NC(=S)N3CCN(c4cccc(Cl)c4)CC3)cc12 28.2 µM [inhibitor, single point]
COCCN1C(=O)C(O)=C(C(=O)c2cccs2)C1c1ccccc1 (configuration not stated) 11.2 µM [inhibitor, single point]
Cn1c(-c2c(N)n(-c3ccccc3)c3nc4ccccc4nc23)nc2ccccc21 11.2 µM [inhibitor, single point]
COc1ccc2oc(=O)c(-c3cn4ccc(C)cc4n3)cc2c1 11.2 µM [inhibitor, partial curve]
CCn1cc(Br)c(C(=O)NC(=S)Nc2ccc(C(=O)OC)cc2)n1 12.6 µM [inhibitor, single point]
C=CCn1c(=NC(=O)C2CC2)sc2cc(NC(C)=O)ccc21 0.501 µM [inhibitor, full curve, poor fit]
O=C(Cc1nc(=O)c2ccccc2s1)Nc1ccccc1 28.2 µM [inhibitor, single point]
CC(Oc1ccc(Cl)cc1Cl)C(=O)NC(=S)N1CCc2ccccc21 (configuration not stated) 28.2 µM [inhibitor, single point]
Cc1cc2nc3c(=O)[nH]c(=O)nc-3n(C[C@H](O)[C@H](O)[C@H](O)CO)c2cc1C 10 µM [inhibitor, single point]
N=C1C(c2nc3ccccc3s2)=C(O)CN1c1ccccc1 28.2 µM [inhibitor, single point]
CC(=O)Nc1nnc(SCC(=O)c2ccc3c(c2)Cc2ccccc2-3)s1 28.2 µM [inhibitor, single point]
Cc1ccc(Nc2ncnc3sc(C)c(C)c23)cc1C 17.8 µM [inhibitor, single point]
O=C(CSc1ncnc2c1oc1ccccc12)Nc1ccccc1F 25.1 µM [inhibitor, single point]
Cc1nc(-c2cccc(-c3noc(C)n3)c2)no1 20 µM [inhibitor, single point]
CCOC(=O)CSc1nc(-c2ccccc2)nc2ccc(C)cc12 11.2 µM [inhibitor, single point]
O=C(c1ccc2c(=O)n(Cc3ccc4c(c3)OCO4)c(=S)[nH]c2c1)N1CCCCC1 28.2 µM [inhibitor, single point]
CN1CCN(CCc2ccc(Cl)c(Cl)c2)CC1 10 µM [inhibitor, partial curve, poor fit]
CCCC(=O)Nc1ccc2oc(-c3ccc(OC)c(Br)c3)nc2c1 28.2 µM [inhibitor, single point]
O=C(Cn1ncc(Cl)c(Cl)c1=O)N1CCc2ccccc21 28.2 µM [inhibitor, single point]
O=C(N/N=C/c1ccncc1)C12CC3CC(CC(C3)C1)C2 5.01 µM [inhibitor, single point]
COc1ccc(Oc2ncc3ncc(=O)n(CCc4ccccc4)c3n2)cc1 10 µM [inhibitor, single point]
COc1ccc2[nH]cc(CCN=C3SCC(=O)N3C)c2c1 11.2 µM [inhibitor, partial curve]
O=C(Nc1nccs1)c1cc2sccc2n1Cc1ccc(Cl)cc1 11.2 µM [inhibitor, single point]
